Measurements reported in US20110212845A1, “Biomarkers for predicting the sensitivity and response of protein kinase CK2-mediated diseases to CK2 Inhibitors” (priority 2009, published 2011).

Legend:
SUM-149PT xenografts = experiment: Human IL-6 plasma levels in mice bearing SUM-149PT xenografts; format: in vivo; settings: xenograft model; depending on tumor size; 50 mg/kg BID PO×3 d, 75 mg/kg PO daily or BID×8 d
Description: The effect of CK2 inhibitors on the secretion of IL-6 by aggressive SUM-149PT xenografts was also studied.
Plasma was isolated, tumors were extracted and weighted. Human IL-6 levels in plasma were determined by ELISA and resulted values were normalized for tumor weight.

[1] = Oral availability across species; settings: in vivo, read-out: % F (oral availability)
5 CYP isoforms = experiment: In vitro CYP inhibition; format: in vitro ADME
hERG channel = hERG channel (Homo sapiens, UniProt Q12809); experiment: In vitro hERG channel inhibition
[2] = tested on: cancer cells and normal fibroblast cells; experiment: Caspase 3/7 apoptosis induction in cancerous versus normal cells; format: cell-based
Excerpt: The X-axis illustrates the cell type. BT-474: breast cancer cells; Mia PaCa 2 and BxPC3-3: pancreatic cancer cells; SK-OV-3 and A2780: ovarian cancer cells; A375: melanoma cells; CCD18Co: normal colon fibroblast cells; CCD1058 and CCD1068: normal skin fibroblast cells; and Mrc5 and IMR90: normal lung fibroblast cells.

[3] = tested on: BT-474 breast cancer and SK-OV-3 ovarian cancer tumors; experiment: Tumor growth in breast and ovarian cancer xenograft models; format: in vivo; settings: models of breast and ovarian cancer; 25 or 75 mg/kg bid, 35 days
IL-6 and IL-8 = experiment: Phase I clinical study, IL-6 and IL-8 levels; format: in vivo, human
Description: Oral doses are administered twice daily for twenty-one consecutive days of a four week cycle. […] Response by RECIST is determined after every 2 cycles. Serial blood and plasma samples are collected on the first and final dosing days of Cycle 1 (i.e., Day 1 and Day 21) for pharmacokinetic analysis and for pharmacodynamic biomarker evaluations (specifically, total and phosphorylated forms of p21 and Akt).

UniProt Q12809, sequence (Q12809 whole entry): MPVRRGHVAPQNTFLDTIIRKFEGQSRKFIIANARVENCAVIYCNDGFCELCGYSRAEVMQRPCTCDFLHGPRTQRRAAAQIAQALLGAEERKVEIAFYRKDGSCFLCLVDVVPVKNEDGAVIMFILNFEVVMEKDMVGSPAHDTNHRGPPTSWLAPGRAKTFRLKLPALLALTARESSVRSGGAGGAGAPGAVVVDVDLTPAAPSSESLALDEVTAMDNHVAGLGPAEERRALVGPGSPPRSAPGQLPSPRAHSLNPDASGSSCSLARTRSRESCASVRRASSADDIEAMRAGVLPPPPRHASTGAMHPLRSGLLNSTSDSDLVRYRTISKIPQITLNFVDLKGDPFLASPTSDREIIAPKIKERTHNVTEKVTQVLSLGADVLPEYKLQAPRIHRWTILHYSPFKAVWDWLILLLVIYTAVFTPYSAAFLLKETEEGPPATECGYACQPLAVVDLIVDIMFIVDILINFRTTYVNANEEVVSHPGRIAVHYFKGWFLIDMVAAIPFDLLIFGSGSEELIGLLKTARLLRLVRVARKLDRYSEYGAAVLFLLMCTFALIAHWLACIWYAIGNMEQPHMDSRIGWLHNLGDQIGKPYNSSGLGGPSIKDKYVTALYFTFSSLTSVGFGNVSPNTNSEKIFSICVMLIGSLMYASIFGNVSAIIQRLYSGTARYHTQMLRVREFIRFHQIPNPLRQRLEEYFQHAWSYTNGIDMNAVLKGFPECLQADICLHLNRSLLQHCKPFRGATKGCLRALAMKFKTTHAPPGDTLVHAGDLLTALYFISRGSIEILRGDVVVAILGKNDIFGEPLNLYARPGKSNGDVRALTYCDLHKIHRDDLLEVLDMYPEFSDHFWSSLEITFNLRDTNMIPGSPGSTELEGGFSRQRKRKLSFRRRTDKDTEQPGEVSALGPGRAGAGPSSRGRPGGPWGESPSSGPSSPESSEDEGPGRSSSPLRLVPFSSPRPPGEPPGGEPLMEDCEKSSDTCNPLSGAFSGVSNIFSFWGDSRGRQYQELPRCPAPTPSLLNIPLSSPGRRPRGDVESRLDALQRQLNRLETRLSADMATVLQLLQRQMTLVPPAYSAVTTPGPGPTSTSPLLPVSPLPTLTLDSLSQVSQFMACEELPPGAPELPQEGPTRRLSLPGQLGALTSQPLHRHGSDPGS

## O=C(O)c1ccc2c(c1)nc(Nc1cccc(Cl)c1)c1ccncc12 [CX-4945]
SUM-149PT xenografts
  reduction in human IL-6 plasma levels: 40-60%
[1]
  bioavailability: 20 to 48%
5 CYP isoforms
  in vitro inhibition of 5 CYP isoforms: no significant in vitro inhibition
hERG channel
  in vitro inhibition of the hERG channel: no significant in vitro inhibition
Mutagenicity
  mutagenicity: non-mutagenic
[2]; cancer cells
  apoptosis (Caspase 3/7 activity) in cancer cells: induces significant levels of apoptosis in cancer cells
[2]; normal cells
  apoptosis (Caspase 3/7 activity) in normal cells: remain unaffected
[3]
  tumor growth in vivo: inhibit tumor growth
IL-6 and IL-8; inflammatory breast cancer and prostate cancer patients, after 21 days of dosing
  serum IL-6 levels in patients: marked reduction in serum IL-6 levels
IL-6 and IL-8; patients with prostate, thyroid/papillary and Leydig cell tumors
  IL-8 levels in patients: reduced significantly
